{"source": "the supplement of paper PMC8813932", "note": "Counter-ions that a name gives are not always drawn. ± gives the standard deviation of the averaged measurements. The list shows a part of the results. Repeats are few or missing, and single values can be far off.", "data": [{"test_system": "OVCAR4", "experiment": "log2 surviving fraction relative to plate median (drug vs vehicle, or drug+dl922-947 vs dl922-947 alone); ovarian cancer lines: OVCAR4 is platinum-sensitive while Ov4Cis resists cisplatin and Ov4Carbo carboplatin; higher = more cell survival", "conditions": "dl922-947 oncolytic adenovirus co-treatment: MOI 10; compound concentration: 10 uM; 192 h", "values": [{"molecule": "C[C@@H](c1ncncc1F)[C@](O)(Cn1cncn1)c1ccc(F)cc1F", "note": "[Voriconazole]", "log2 surviving fraction": "1.07 ± 0.0062"}, {"molecule": "C=CCOc1ccccc1OCC(O)CNC(C)C", "note": "(stereo not given) [Oxprenolol HCl]", "log2 surviving fraction": "0.0272 ± 0.1"}, {"molecule": "NC(=O)N1c2ccccc2C=Cc2ccccc21", "note": "[Carbamazepine (Carbatrol)]", "log2 surviving fraction": "0.533 ± 0.36"}, {"molecule": "CN1C2=CC(=O)/C(=N\\NC(N)=O)C=C2CC1S(=O)(=O)O", "note": "(stereo not given) [Carbazochrome sodium sulfonate]", "log2 surviving fraction": "0.318 ± 0.66"}, {"molecule": "COc1ccccc1OCC(O)CO", "note": "(stereo not given) [Guaifenesin (Guaiphenesin)]", "log2 surviving fraction": "-0.71 ± 0.16"}, {"molecule": "Cc1ccc(C(=O)Nc2ccc(CN3CCN(C)CC3)c(C(F)(F)F)c2)cc1C#Cc1cnc2cccnn12", "log2 surviving fraction": "-9.43 ± 0.53"}, {"molecule": "COc1ccc(C(=O)N2CCCC2=O)cc1", "note": "[Aniracetam]", "log2 surviving fraction": "0.521 ± 0.28"}, {"molecule": "C[C@H](Cn1cnc2c(N)ncnc21)OCP(=O)(O)O", "note": "[Tenofovir (Viread)]", "log2 surviving fraction": "-0.73 ± 0.76"}, {"molecule": "CN(C)CCCN1c2ccccc2CCc2ccc(Cl)cc21", "note": "[Clomipramine hydrochloride (Anafranil)]", "log2 surviving fraction": "-3.01 ± 0.81"}, {"molecule": "Nc1ccc(S(=O)(=O)Nc2ccccn2)cc1", "note": "[Sulfapyridine (Dagenan)]", "log2 surviving fraction": "0.101 ± 0.57"}, {"molecule": "Oc1c(Cl)cc(Cl)c2cccnc12", "note": "[Chloroxine]", "log2 surviving fraction": "-3.26 ± 0.59"}, {"molecule": "CC1(C)S[C@@H]2[C@H](NC(=O)C(C(=O)O)c3ccccc3)C(=O)N2[C@H]1C(=O)O", "note": "(stereo not given in full) [Carbenicillin disodium]", "log2 surviving fraction": "-0.135 ± 0.2"}, {"molecule": "CCC(C)n1ncn(-c2ccc(N3CCN(c4ccc(OCC5COC(Cn6cncn6)(c6ccc(Cl)cc6Cl)O5)cc4)CC3)cc2)c1=O", "note": "(stereo not given) [Itraconazole (Sporanox)]", "log2 surviving fraction": "0.6 ± 0.036"}, {"molecule": "Oc1ccc(OCc2ccccc2)cc1", "note": "[Monobenzone (Benoquin)]", "log2 surviving fraction": "-2.15 ± 1.3"}, {"molecule": "C[N+](C)(C)CCO.[Cl-]", "note": "[Choline Chloride]", "log2 surviving fraction": "0.603 ± 0.021"}, {"molecule": "CN1CCC(=C2c3ccccc3CCc3sccc32)CC1", "note": "[Pizotifen malate]", "log2 surviving fraction": "-1.12 ± 1.2"}, {"molecule": "CO[C@H]1/C=C/O[C@@]2(C)Oc3c(C)c(O)c4c(c3C2=O)C2=NC3(CCN(CC(C)C)CC3)NC2=C(NC(=O)/C(C)=C\\C=C\\[C@H](C)[C@H](O)[C@@H](C)[C@@H](O)[C@@H](C)[C@H](OC(C)=O)[C@@H]1C)C4=O", "note": "[Rifabutin (Mycobutin)]", "log2 surviving fraction": "0.209 ± 1.4"}, {"molecule": "C#C[C@]1(O)CC[C@H]2[C@@H]3CCc4cc(O)ccc4[C@H]3CC[C@@]21C", "note": "[Ethinyl Estradiol]", "log2 surviving fraction": "-2.19 ± 0.69"}, {"molecule": "C[C@@H](O[C@H]1OCCN(Cc2n[nH]c(=O)[nH]2)[C@H]1c1ccc(F)cc1)c1cc(C(F)(F)F)cc(C(F)(F)F)c1", "note": "[Aprepitant (MK-0869)]", "log2 surviving fraction": "-0.447 ± 0.26"}, {"molecule": "Cc1cc(C2CCCCC2)n(O)c(=O)c1", "note": "[Ciclopirox ethanolamine]", "log2 surviving fraction": "-6.94 ± 0.88"}, {"molecule": "NC(=O)c1ncn([C@@H]2O[C@H](CO)[C@@H](O)[C@H]2O)c1N", "note": "[Acadesine]", "log2 surviving fraction": "0.999 ± 0.28"}, {"molecule": "O=C(O)CCc1nc2ccccc2[nH]1", "note": "[Procodazole]", "log2 surviving fraction": "0.602 ± 0.2"}, {"molecule": "Cc1ccnc(NS(=O)(=O)c2ccc(N)cc2)n1", "note": "[Sulfamerazine]", "log2 surviving fraction": "0.27 ± 0.39"}, {"molecule": "O=C1O[C@H]([C@@H](O)CO)C([O-])=C1O.[Na+]", "note": "[Sodium ascorbate]", "log2 surviving fraction": "0.508 ± 0.28"}, {"molecule": "CN1[C@@H]2CC[C@H]1C[C@@H](OC(=O)C(CO)c1ccccc1)C2", "note": "(stereo not given in full) [Atropine]", "log2 surviving fraction": "-1.76 ± 0.14"}, {"molecule": "Cc1cnc(C(=O)O)c[n+]1[O-]", "note": "[Acipimox]", "log2 surviving fraction": "-0.518 ± 2"}, {"molecule": "Cn1c(=O)c2[nH]cnc2n(C)c1=O", "note": "[Aminophylline (Truphylline)]", "log2 surviving fraction": "0.465 ± 0.099"}, {"molecule": "C[N+](C)(CCOc1ccccc1)Cc1ccccc1.O=C([O-])c1cc2ccccc2cc1O", "note": "[Bephenium Hydroxynaphthoate]", "log2 surviving fraction": "-0.0269 ± 0.83"}, {"molecule": "Nc1nnc(-c2cccc(Cl)c2Cl)c(N)n1", "note": "[Lamotrigine]", "log2 surviving fraction": "0.184 ± 0.69"}, {"molecule": "CC(C)NCC(O)c1ccccc1Cl", "note": "(stereo not given) [Clorprenaline HCL]", "log2 surviving fraction": "0.0604 ± 0.21"}, {"molecule": "O=C(O)c1ccc(-n2nc(-c3ccccc3O)nc2-c2ccccc2O)cc1", "note": "[Deferasirox (Exjade)]", "log2 surviving fraction": "-2.89 ± 0.69"}, {"molecule": "CN(N=O)C(=O)N[C@@H](C=O)[C@@H](O)[C@H](O)[C@H](O)CO", "note": "[Streptozotocin (Zanosar)]", "log2 surviving fraction": "0.244 ± 1.3"}, {"molecule": "O=C1CC[C@@]2(O)[C@H]3Cc4ccc(O)c5c4[C@@]2(CCN3CC2CC2)[C@H]1O5", "note": "[Naltrexone HCl]", "log2 surviving fraction": "0.246 ± 0.48"}, {"molecule": "CCCN1CCCC[C@H]1C(=O)Nc1c(C)cccc1C", "note": "[Ropivacaine HCl]", "log2 surviving fraction": "-0.905 ± 0.27"}, {"molecule": "C[C@]12CC[C@H](O)CC1=CC[C@@H]1[C@@H]2CC[C@]2(C)C(c3cccnc3)=CC[C@@H]12", "note": "[Abiraterone (CB-7598)]", "log2 surviving fraction": "0.263 ± 0.85"}]}]}
